The list shows a part of the results. At the low end of the ranking, values are background and their order means little.

The target in this assay is T1, GST-Rok-C97-191 (UniProt O34857).
T1 sequence: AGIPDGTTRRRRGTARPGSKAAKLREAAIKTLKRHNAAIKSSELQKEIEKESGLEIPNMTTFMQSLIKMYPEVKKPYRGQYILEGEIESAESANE
Kind of assay: protein binding microarray.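 Note: rank score from −0.5 (least bound) to 0.5 (best bound).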 As to conditions: Rok is a gene silencer of Bacillus subtilis; high values mean tight binding; most listed sequences are background and not binding sites; double strand, one strand shown.
In turn, CTCGTAGC returned a binding signal of 0.109 E-score.

Take CTTGAAGC: the binding signal was -0.226 E-score. TACCGAGA returned a binding signal of 0.0988 E-score. On to AGCGCGAC, for which the binding signal came out at 0.137 E-score. For CTGCAGAC, the binding signal came to 0.118 E-score.

As for AATATCCT, the binding signal is 0.07 E-score. Regarding ACGAATGA, the binding signal came to 0.16 E-score.

CTACAAAA registered a binding signal of 0.0521 E-score.

Regarding CGCACGTA, the binding signal is -0.0986 E-score. In the case of GACCCAGA it was -0.142 E-score. The value for CCCGAGGG was -0.363 E-score; that for CTGTAAAA was 0.0478 E-score. In the case of CTACGTGC it was -0.0669 E-score; in that of ACCGCGGC, -0.188 E-score; in that of AGCTACAG, 0.247 E-score.

For the sequence ATCTTTCC, the binding signal was -0.128 E-score. In the case of GCATGTCC it was 0.0487 E-score; in that of GTCAACAC, -0.142 E-score. In the case of ACTAGTGG it was -0.0087 E-score; in that of AGGTACCA, 0.256 E-score; in that of GTGAAGCA, -0.239 E-score. The value for CGCGGGGA was -0.321 E-score. Take GAGCCTAA: the binding signal is -0.143 E-score.

Turning to CCAGATCC, the binding signal is -0.209 E-score.

With AACGCAAC, the binding signal was -0.0443 E-score.

In the case of CTAAATTC, the binding signal is 0.23 E-score. For the sequence CCCTTTCC, the binding signal was -0.246 E-score.

In the case of AGCTGAGG, the binding signal was -0.237 E-score. As to CCTTTGTC, the binding signal was -0.261 E-score. The value for AACCACAG was -0.102 E-score.

In turn, AGCAAGCC returned a binding signal of 0.0134 E-score.

As to CCTTCGCG, the binding signal is -0.181 E-score.

For ACAAGAAT, the binding signal is -0.0905 E-score. Consider CGAATATC, for which the binding signal was determined as 0.0293 E-score.

Turning to AGGATATG, the binding signal is -0.0495 E-score. As for AAGAGACA, the binding signal is -0.221 E-score. In the case of ACCCCCAA it was -0.399 E-score; in that of CGACCTAG, 0.0268 E-score. In the case of GAACTACC it was 0.367 E-score; in that of ACGTGAAA, 0.0489 E-score; in that of ATGACAAC, 0.0181 E-score. With GTGAATTA, the binding signal is 0.221 E-score. For ACAATAAA, the binding signal is 0.104 E-score. Regarding CGGTCCGC, the binding signal is -0.279 E-score. The value for CAAAGCGA was -0.152 E-score. The value for ATTTCTCC was 0.21 E-score; that for ATGCTTGA was -0.0156 E-score.

As to CCTTATAG, the binding signal is -0.14 E-score.

For the sequence AGTCCTGG, the binding signal is -0.174 E-score. The value for GAGGTCGA was -0.175 E-score; that for CAGCTACG was -0.116 E-score; that for ATCAGCGA was -0.088 E-score. The value for CATCAAAA was 0.0604 E-score; that for CCCATACC was -0.266 E-score; that for ATGGAGTA was 0.0769 E-score. As for GGGGGCAC, the binding signal is -0.382 E-score.

Take CACCACTC: the binding signal is -0.262 E-score. The value for CCAACGCC was -0.246 E-score.

CGGAGAAA: the binding signal was -0.0905 E-score. The value for CCGCAAGG was -0.349 E-score. Sequence CAGAACCG displayed a binding signal of 0.00965 E-score. In the case of GAGATTGC it was -0.0481 E-score; in that of CTACTGGA, 0.204 E-score; in that of AATAGACC, 0.155 E-score. Take CCACTTCA: the binding signal was 0.0603 E-score.

As for ACACCCTC, the binding signal is -0.173 E-score. In the case of ACTGACTA it was 0.139 E-score; in that of ACCGTCAC, 0.0542 E-score; in that of ATACACAT, 0.214 E-score. Take AGCGCCAA: the binding signal is -0.207 E-score.

As for GCAGTTAC, the binding signal is 0.134 E-score. For the sequence CACCCGTG, the binding signal is -0.0933 E-score. GACAGTCC: the binding signal is -0.285 E-score. For the sequence CTCCAGGA, the binding signal is -0.0714 E-score. The value for CAATAACG was -0.0985 E-score; that for GTGACCGA was 0.048 E-score; that for TAGAGTAA was 0.184 E-score. In the case of CCTTATAA it was 0.0808 E-score; in that of CAGGTCAA, -0.108 E-score; in that of CACCTTGA, -0.0916 E-score. The value for ATGCCGCA was -0.151 E-score; that for CTCTGAAC was -0.129 E-score; that for ATGGTCGG was -0.0958 E-score. For CCTCACAG, the binding signal was -0.0263 E-score. Sequence AGATTCGA yielded a binding signal of 0.104 E-score. CGAGGCTC: the binding signal is -0.225 E-score. Consider GTGGTGTA, for which the binding signal stood at 0.129 E-score. Take ACGCGTAT: the binding signal stood at 0.126 E-score. On to ATCCTGAA, for which the binding signal was -0.00316 E-score. In the case of ATTCTAGG it was 0.145 E-score.

For the sequence CGAATGAA, the binding signal amounted to 0.058 E-score.

Regarding CTTTGAGA, the binding signal was -0.0803 E-score. As for GGATCGAC, the binding signal is -0.157 E-score. In the case of GGCCACGA it was -0.313 E-score; in that of CACTATAA, 0.155 E-score. In the case of ATTGCGAG it was 0.0155 E-score; in that of GGGTTTGA, -0.123 E-score. AGGGTGAA: the binding signal is -0.187 E-score.

As for GGGTACGA, the binding signal was -0.165 E-score. In the case of AATACGCC it was -0.0105 E-score; in that of CTTTGAGC, -0.0975 E-score; in that of ATGACATG, -0.0751 E-score. The value for CCGGCTGC was -0.24 E-score. In the case of GGGCCAGA, the binding signal was -0.302 E-score. In the case of AGCGATAA it was 0.111 E-score; in that of ATACCATA, 0.267 E-score; in that of GAGTCTCA, -0.158 E-score. AGTTCGAC showed a binding signal of 0.0201 E-score. In the case of AAAGTGTG it was -0.107 E-score. On to CCGACGAA, for which the binding signal worked out at 0.0799 E-score.

As for AGCTTGCC, the binding signal is -0.138 E-score. With GCTACTTA, the binding signal turned out to be 0.279 E-score.

As to ACACTTAA, the binding signal is 0.0866 E-score.

In the case of ATCTCAGA, the binding signal amounted to 0.0386 E-score. For the sequence GACCATTA, the binding signal was found to be 0.0314 E-score. AACCCAAT: the binding signal was 0.0675 E-score.

In turn, ATGCGGAC came in with a binding signal of 0.000472 E-score. The sequence ACTACCAC came in with a binding signal of 0.383 E-score. On to ATGCACAC, for which the binding signal was -0.121 E-score. The value for ATATCGGA was 0.24 E-score; that for AGCTAATG was 0.162 E-score. The value for GCACAGAC was -0.129 E-score; that for CATCGCTC was -0.326 E-score; that for AGCAACCC was -0.243 E-score. Turning to ACCCCCCC, the binding signal is -0.231 E-score. The value for AGTTCCAT was 0.168 E-score; that for ATTAATTC was 0.147 E-score. In the case of GGTCCGGA it was -0.091 E-score.

In the case of TCGGCAAA, the binding signal is -0.209 E-score. In the case of CGCATGAC it was -0.0389 E-score.

In the case of CTTTCGGC, the binding signal is -0.163 E-score. Take AGGCACTC: the binding signal was -0.294 E-score.

Consider ATTTTACG, for which the binding signal was 0.268 E-score.

Turning to CCACGGTC, the binding signal was -0.172 E-score. The value for GCGGACGC was -0.255 E-score; that for ATGTCCAG was -0.00222 E-score.

As for AGTACGCG, the binding signal is -0.0757 E-score. On to CCCCGTAC, for which the binding signal is -0.147 E-score. In the case of AAGGTATA it was 0.181 E-score; in that of CAGATCAG, -0.267 E-score. In the case of CACCTTGG it was -0.247 E-score; in that of ATTGCGGA, 0.0617 E-score; in that of CAATATTG, 0.126 E-score. With AAGGGGGG, the binding signal was -0.254 E-score. Turning to GTCTGTGA, the binding signal was -0.135 E-score. In the case of CTGTGGTA, the binding signal came out at 0.066 E-score. The value for GAATTAAC was 0.0638 E-score; that for CCCAGGCA was -0.186 E-score. TAACTGCA returned a binding signal of 0.143 E-score. Turning to CCTGTAAG, the binding signal is -0.149 E-score.

Turning to CAGGTGCA, the binding signal is -0.101 E-score.

For GGATGCAA, the binding signal was -0.124 E-score. Regarding CGTGTGCA, the binding signal was -0.103 E-score. The value for ACGTATCG was 0.0273 E-score; that for CCGCCACG was -0.256 E-score; that for ATTGCTTG was 0.0118 E-score. The value for CAGAACTG was -0.0193 E-score; that for CCATACAC was -0.00448 E-score. In the case of CTTCTCTC it was 0.0464 E-score; in that of CAATACGG, 0.0164 E-score. With AGTGCACA, the binding signal was -0.00715 E-score. As for CCACCTGG, the binding signal was -0.207 E-score. As to GTGCTGGA, the binding signal was -0.124 E-score. In the case of CTTACCGC, the binding signal was -0.0741 E-score. For the sequence CGAAGGCA, the binding signal was -0.11 E-score.

For GCAATGAA, the binding signal was -0.0602 E-score.

For AGAGGAAA, the binding signal was -0.147 E-score.

As to AATCCTCC, the binding signal is -0.0482 E-score. As for ACCTTGTC, the binding signal is -0.0614 E-score. Regarding CAGGCACG, the binding signal is -0.333 E-score. In the case of ATCTAATG it was 0.0475 E-score; in that of ACTAGAAC, 0.255 E-score.
